# In PMC4336329 (PLoS ONE, 2015):
# Among all 310,000 compounds or so, about 2,200 (0.71%) showed an effect of 50% or more. Effects have a minus sign here. Some of the results follow.
# Target: human ether-à-go-go-related gene (hERG) potassium channel (human, UniProt Q12809)
# Assay: primary screen, population patch clamp on CHO cells stably expressing hERG
# Chain of human ether-à-go-go-related gene (hERG) potassium channel (Q12809 whole entry, looked up): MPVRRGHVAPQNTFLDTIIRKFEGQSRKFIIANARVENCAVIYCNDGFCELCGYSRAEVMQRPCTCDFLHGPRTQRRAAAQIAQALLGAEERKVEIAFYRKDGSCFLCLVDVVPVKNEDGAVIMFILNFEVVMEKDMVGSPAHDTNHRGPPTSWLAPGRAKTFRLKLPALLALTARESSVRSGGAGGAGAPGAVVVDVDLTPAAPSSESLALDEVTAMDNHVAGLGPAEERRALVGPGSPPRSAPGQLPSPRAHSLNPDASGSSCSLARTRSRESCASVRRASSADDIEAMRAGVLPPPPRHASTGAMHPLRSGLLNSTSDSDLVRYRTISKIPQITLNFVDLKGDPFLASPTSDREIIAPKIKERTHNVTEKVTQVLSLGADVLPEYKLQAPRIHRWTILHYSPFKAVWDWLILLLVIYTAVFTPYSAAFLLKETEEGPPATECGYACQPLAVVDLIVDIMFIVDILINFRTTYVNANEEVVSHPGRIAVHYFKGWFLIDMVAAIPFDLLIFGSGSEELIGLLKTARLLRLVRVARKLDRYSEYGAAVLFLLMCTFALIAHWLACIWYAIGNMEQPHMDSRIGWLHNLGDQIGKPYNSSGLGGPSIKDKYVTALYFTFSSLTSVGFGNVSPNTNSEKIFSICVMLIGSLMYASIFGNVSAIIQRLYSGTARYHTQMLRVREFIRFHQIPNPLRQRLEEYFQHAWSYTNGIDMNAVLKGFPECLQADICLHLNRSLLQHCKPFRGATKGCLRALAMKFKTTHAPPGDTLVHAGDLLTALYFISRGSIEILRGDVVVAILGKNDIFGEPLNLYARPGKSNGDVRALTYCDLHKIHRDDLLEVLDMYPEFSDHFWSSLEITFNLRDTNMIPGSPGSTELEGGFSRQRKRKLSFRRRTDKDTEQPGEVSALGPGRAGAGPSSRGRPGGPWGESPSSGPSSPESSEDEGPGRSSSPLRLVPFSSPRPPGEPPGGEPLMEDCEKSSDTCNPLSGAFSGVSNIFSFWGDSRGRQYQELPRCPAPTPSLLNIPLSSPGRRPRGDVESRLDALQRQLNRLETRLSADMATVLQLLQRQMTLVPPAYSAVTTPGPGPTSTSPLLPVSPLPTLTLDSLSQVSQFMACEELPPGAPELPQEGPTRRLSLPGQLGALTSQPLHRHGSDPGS
row,SMILES,"hERG current change (%, negative = inhibition) at 1uM"
1,CN1C(=O)NC(c2ccc(C(F)(F)F)cc2)C2=C1CC(C)(C)CC2=O (stereo not drawn),2.15%
2,c1ccc(Cc2nc3ccccc3o2)cc1,15%
3,O=C(Nc1ccc(Br)cc1)Nn1cnnc1,15.1%
4,O=C(O)c1ccccc1NC(=O)C1CCN(S(=O)(=O)c2cccc3nsnc23)CC1,14.1%
5,COc1ccc(/C=N/NC(=O)c2ccc(COCC(F)(F)C(F)F)cc2)cc1,8.85%
6,Nc1n[nH]c2cc(=O)n(-c3cccc(C(F)(F)F)c3)nc12,12.3%
7,O=C(COc1ccccc1Cl)NC(=S)N1CCc2ccccc21,-9.6%
8,CCOC(=O)C(=CNc1ccc2c(c1)CCN2C(C)=O)C(=O)OCC,12.1%
9,Cc1ccc(C(C(=O)NC2CCCC2)N(Cc2cccnc2)C(=O)c2snc(C(N)=O)c2N)o1 (stereo not drawn),12.3%
10,CCOc1ccc(NC(=S)NCCCN2CCN(c3ccc(OC)cc3)CC2)cc1,-29.3%
11,COc1ccc(CCN(Cc2cc3ccc(C)cc3n3nnnc23)C(C)=O)cc1OC,-12.5%
12,Cc1ccc(NC(=O)c2ccccc2OCC(=O)Nc2cccc(Cl)c2C)nc1,15.1%
13,CC(C)C(C(=O)NC1=NCCS1)c1ccc(Cl)cc1 (stereo not drawn),-26.6%
14,C/C(=N/NC(=O)c1sc(=S)n(C)c1C)c1ccccc1,5.59%
15,Cn1c(=O)cc(SCC(=O)N2CCN(c3ccccc3)CC2)c2ccccc21,5.48%
16,C/C(=N/NC(=O)CNC(=O)c1ccccc1)c1ccc(C)cc1,10.3%
17,CN(C)S(=O)(=O)c1ccc(C(=O)NCCC(=O)N2CCCC2)cc1,10.5%
18,COC(=O)c1c(N)n(-c2ccc(NC(C)=O)cc2)c2nc3ccccc3nc12,9.43%
19,O=C(NNc1nc2ccccc2o1)c1ccccc1,-14.5%
20,COc1ccc(OC)c(/C=C(\NC(=O)c2ccccc2)C(=O)N/N=C/c2ccc(C)s2)c1,7.76%
21,c1ccc(Nc2nc(-c3ccccn3)cs2)cc1,4.92%
22,Cc1ccc(CNC(=O)Nc2cccs2)cc1,2.16%
23,Oc1ccccc1OCc1nc2ccccc2s1,-4.59%

row,SMILES,"hERG current change (%, negative = inhibition) at 1uM"
1,O=C(CSc1nc(-c2ccccc2)cc(C(F)(F)F)n1)NCCN1CCOCC1,-1.83%
2,COc1ccc(NS(=O)(=O)c2ccc(N/N=C(\C)c3ccncc3)c([N+](=O)[O-])c2)cc1,13.5%
3,COc1ccc(CNC(=O)CN2C(=O)NC(C)(c3ccc(C(C)(C)C)cc3)C2=O)cc1 (stereo not drawn),10.7%
4,CCOC(=O)c1c(NC(=O)COC(=O)c2nccnc2N)sc2c1CCC2,10.7%
5,COc1ccc(CCNC(=O)CN2C(=O)c3ccccc3S2(=O)=O)cc1,6.12%
6,Cc1cc(O)c(C2(O)C(=O)Nc3ccccc32)cc1C (stereo not drawn),3.44%
7,CCCC(=O)c1c[nH]c(C(=O)NCCc2ccccn2)c1,25.3%
8,C#CC(CC)(CC)NC(=O)NC1CCCCC1,8.12%
9,CCCNC(=S)N1CCC(Cc2ccccc2)CC1,19.4%
10,O=C1CCCCN1CCCC(=O)N1CCCC(Nc2ccc(F)cc2)C1 (stereo not drawn),15.5%
11,O=C(NC(=S)Nc1cccc([N+](=O)[O-])c1)c1ccco1,10.1%
12,Cc1ccc(C(=O)NCCNS(=O)(=O)c2ccccc2)cc1,-1.17%
13,COc1ccccc1NC(=O)C(C)OC(=O)c1nc2nc(C)cc(C)n2n1 (stereo not drawn),18%
14,Cc1cc(C)cc(OCC(=O)Nc2ccc3c4c(cccc24)CC3)c1,6.86%
15,CCC(C)n1c(C)cc(C(N)=O)c1C (stereo not drawn),7.39%
16,COc1ccc(Cl)cc1C(=O)Nc1cccnc1,15.2%
17,CNC(=O)CSc1nc2sccc2c(=O)n1-c1ccccc1,13.3%
18,O=C(CNC(=O)c1ccccc1)NCC(=O)OCc1ccc(Cl)cc1,4.64%
19,CC1(C)Cc2c(C#N)c(OCC(=O)c3ccccc3)nc(-c3ccoc3)c2CO1,6.54%
20,Cc1c(C(=O)c2ccccc2)oc2ccc3ccccc3c12,10.4%
21,O=C1N(Cc2cccc(Cl)c2)C[C@@H]2C[C@@H](c3c[nH]c4ccccc34)N3CCC[C@@]123,-49.5%
22,Cc1ccc(OCCCCNC2CCCCC2)c(C)c1.O=C(O)C(=O)O,-2.23%
23,Brc1cc2c(cc1Br)OCCOCCOCCO2,5.78%

row,SMILES,"hERG current change (%, negative = inhibition) at 1uM"
1,CCNC(=S)N1CCc2ccccc2C1,9.59%
2,CCOc1ccc(N(CC(=O)Nc2cccc(Br)c2)S(C)(=O)=O)cc1,12.8%
3,COc1ccc(OC)c(C(c2nnnn2C2CCCC2)N2CCN(c3ccccc3)CC2)c1.Cl (stereo not drawn),-2.96%
4,CC(C)C(NC(=O)c1ccc(Br)cc1)C(=O)NC1=NCCS1 (stereo not drawn),2.57%
5,CCc1ccc(/C=N/NC(=O)Cc2cccn2C)cc1,8.8%
6,NC(=O)c1oc2ccccc2c1NC(=O)c1ccccc1,8.45%
7,COc1ccc(Oc2ccc(C(F)(F)F)cc2NC(=O)CC(CC(=O)O)c2ccccc2)cc1 (stereo not drawn),5.26%
8,COC(=O)CC(NS(=O)(=O)c1cccs1)c1ccc2c(c1)OCO2 (stereo not drawn),9.58%
9,Cc1ccnc(NC(=O)c2ccccc2[N+](=O)[O-])c1,23.7%
10,COc1cc(C)nc(N2CCCC(C(=O)NC3CCC(C)CC3)C2)n1 (stereo not drawn),9.45%
11,Br.Cc1nc(SC2C=CS(=O)(=O)C2)n[nH]1 (stereo not drawn),13.4%
12,O=C(NCCc1ccc(Cl)cc1)C1CCCN(S(=O)(=O)c2cnc[nH]2)C1 (stereo not drawn),6.95%
13,Cc1cnc(C)c(N2CCN(C(=O)C3CCC(=O)N(CCc4cccc(F)c4)C3)CC2)n1 (stereo not drawn),-10.4%
14,Cc1oc(-c2ccccc2F)nc1CN1CCC(C(=O)NCc2ccco2)CC1,-9.53%
15,COc1cccc(C(=O)NNC(=O)c2cccnc2)c1,14.1%
16,S=C(NCCCN1CCOCC1)N1CCN(c2nc(-c3ccccc3)cs2)CC1,10%
17,COc1cccc(C(=O)OCCN2C(=O)c3ccccc3C2=O)c1OC,13.2%
18,COCCn1c(SC(C)C(=O)Nc2ccc3c(c2)OCCO3)nc2ccccc2c1=O (stereo not drawn),2.18%
19,COc1ccc(CNCC(=O)Nc2cc(OC)cc(OC)c2)cc1.O=C(O)C(=O)O,14.4%
20,COc1ccc(C(CC(=O)O)NC(=O)COc2ccc(C)cc2)cc1OC (stereo not drawn),13.3%
21,Cn1c(C(=O)O)c(CC(=O)N2CCN(Cc3ccccc3)CC2)c2ccccc21,10.4%
22,O=C(O)/C=C/C(=O)Nc1ccccc1SC(F)(F)F,6.11%
23,CSc1n[nH]c(N)c1S(=O)(=O)c1ccc(Cl)cc1,15.1%

row,SMILES,"hERG current change (%, negative = inhibition) at 1uM"
1,O=C(Cc1ccc(Cl)cc1)NCCc1c[nH]c2ccccc12,8.06%
2,O=C(OC1CCOC1=O)c1ccc(NS(=O)(=O)c2cccs2)cc1 (stereo not drawn),19%
3,COc1cccc(SCc2noc(C(=O)NCCN(C)C)c2C(=O)NCCN(C)C)c1,10.6%
4,Cc1ccc(-n2c(Cc3cccs3)nnc2SCC(=O)Nc2ccc(S(N)(=O)=O)cc2)cc1,9.49%
5,O=C(COc1ccc(S(=O)(=O)N2CCCC2)cc1)Nc1ccc(F)cc1,4.32%
6,CCc1ccc(OCC(=O)N(Cc2ccccc2)C2CCS(=O)(=O)C2)cc1 (stereo not drawn),9.81%
7,Cc1nn(-c2ccccc2)c(C)c1NC(=O)CCl,4.95%
8,CC1CN(C(=O)c2ccc(C(=O)c3ccccc3)cc2)CC(C)O1 (stereo not drawn),11.8%
9,COC(=O)[C@H](Cc1ccccc1)NC(=O)NCc1ccc(C)cc1,1.58%
10,O=C(NCCCO)Nc1ccc2nc(-c3ccco3)c(-c3ccco3)nc2c1,17.2%
11,CC(C)c1ccccc1NC(=O)COC(=O)/C=C/c1cccc([N+](=O)[O-])c1,7.31%
12,ClC1(Cl)CC1CSc1nnc(-c2ccncc2)o1 (stereo not drawn),6.7%
13,O=C(N/N=C/c1cc([N+](=O)[O-])ccc1O)c1ccc(COc2ccc3c(c2)CCC3)o1,17.9%
14,Cc1nc2cc(C(F)(F)F)ccc2n1C1CCN(C(=O)N2CCOCC2)CC1,-17.4%
15,O=C(Nc1cccc(S(=O)(=O)N2CCCC2)c1)c1ccc2c(=O)n3c(nc2c1)CCCCC3,-30.1%
16,Fc1ccc(-c2onc3ccc(C4OCCO4)cc23)cc1,8.17%
17,CCn1c(SCc2ccc(Cl)cc2Cl)nc2nc3c(cc2c1=O)CCCC3,3.75%
18,C/C(=N\N1CCCCCC1)c1c(O)n(-c2ccccc2C)c(=O)[nH]c1=O,4.39%
19,O=C(O)CN1C(=O)c2ccc(Oc3ccc4c(c3)C(=O)N(CC(=O)O)C4=O)cc2C1=O,9.58%
20,CC(=O)Nc1ccc(NC(=O)CCC(=O)OCC(=O)c2cccc([N+](=O)[O-])c2)cc1,11.2%
21,Cc1ccc(S(=O)(=O)N(C)C)cc1NC(=O)c1ccccc1Br,9.32%
